Reference: the supplement of paper PMC3334620
Whole data set: some 33,000 sequences, median “E-score (-0.5 to 0.5)” near -0.035, cut for the highest 2% near 0.35. This is one part of the list.

What follows are sequences tested against T1, Pdr3 (UniProt P33200) (assay: PBM E-score (8-mer binding enrichment) (E-score (-0.5 to 0.5)); higher = stronger / more preferred TF binding; most listed sequences are background and not binding sites). Settings: protein concentration: 200 nM; construct: GST-full length.
T1 sequence: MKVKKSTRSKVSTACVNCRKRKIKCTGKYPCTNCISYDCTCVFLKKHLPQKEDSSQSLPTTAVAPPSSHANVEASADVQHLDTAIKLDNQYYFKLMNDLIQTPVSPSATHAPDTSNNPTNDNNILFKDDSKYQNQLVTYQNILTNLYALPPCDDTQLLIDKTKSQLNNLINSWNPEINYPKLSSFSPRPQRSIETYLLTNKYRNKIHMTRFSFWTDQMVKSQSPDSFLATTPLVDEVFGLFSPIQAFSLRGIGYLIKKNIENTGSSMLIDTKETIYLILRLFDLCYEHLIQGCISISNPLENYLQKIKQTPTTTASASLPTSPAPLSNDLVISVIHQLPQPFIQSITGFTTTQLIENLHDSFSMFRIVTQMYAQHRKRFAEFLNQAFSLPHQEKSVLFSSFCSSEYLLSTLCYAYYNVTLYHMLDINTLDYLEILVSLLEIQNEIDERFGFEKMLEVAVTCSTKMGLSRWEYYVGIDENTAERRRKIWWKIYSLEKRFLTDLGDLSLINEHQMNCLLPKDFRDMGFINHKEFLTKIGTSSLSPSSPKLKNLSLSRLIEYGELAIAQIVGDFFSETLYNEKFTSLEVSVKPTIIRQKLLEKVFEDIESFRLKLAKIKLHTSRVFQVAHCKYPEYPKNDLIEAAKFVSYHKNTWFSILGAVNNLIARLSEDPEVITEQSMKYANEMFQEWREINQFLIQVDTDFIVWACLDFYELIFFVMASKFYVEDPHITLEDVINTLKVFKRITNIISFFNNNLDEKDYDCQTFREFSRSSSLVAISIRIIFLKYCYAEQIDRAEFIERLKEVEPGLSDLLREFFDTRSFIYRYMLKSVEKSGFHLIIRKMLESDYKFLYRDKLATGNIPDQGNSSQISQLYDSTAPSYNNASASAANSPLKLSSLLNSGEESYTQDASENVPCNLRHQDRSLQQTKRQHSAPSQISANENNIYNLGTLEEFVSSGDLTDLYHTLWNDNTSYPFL
How it was run: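 The E-score, a modified Wilcoxon-Mann-Whitney statistic, was computed by the Universal PBM Analysis Suite for every ungapped eight-base word pooled with its reverse complement. Scans behind it were normalised with masliner after bound GST-tagged yeast transcription factors were detected with fluorescent anti-GST. The proteins, at about 100-200 nM, had been applied to universal all-10-mer Agilent arrays made double-stranded by primer extension.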

| Sequence | PBM E-score |
| --- | --- |
| GTGCACAA | 0.00448 |
| ATTGTCTG | 0.00421 |
| ATGGTCGG | 0.128 |
| AGTACCGC | 0.12 |
| CAGAAAGC | -0.162 |
| AAGTCCGT | 0.209 |
| GGTTTAAA | -0.117 |
| ACGTCGAA | -0.0501 |
| CCGACCAC | 0.127 |
| ACTAGGAC | -0.139 |
| AACTCTGA | 0.192 |
| AGATCTTG | -0.148 |
| AACCAGAA | -0.0275 |
| GAAAGTGA | -0.0428 |
| CTGAATTA | 0.0139 |
| CTGCTAGC | -0.305 |
| AAATTACT | -0.0488 |
| AGCGCAAT | -0.00628 |
| AGATGACT | -0.182 |
| AGGCCTCG | -0.0112 |
| AATATTCG | 0.0118 |
| GCAAACGC | 0.166 |

| Sequence | PBM E-score |
| --- | --- |
| CCCTACCC | -0.0539 |
| GACGTGCA | -0.167 |
| TAGTAGGA | -0.0406 |
| ACTAACAA | -0.158 |
| TCCAACAA | -0.159 |
| GACGTATC | -0.0675 |
| CAATCTCG | 0.0488 |
| AAGGACGA | -0.0955 |
| ATGCTCCA | 0.066 |
| GAATTCGC | 0.181 |
| CGACGCCG | 0.215 |
| AAAAGAGG | -0.284 |
| GCTTTGAC | 0.0463 |
| ACCGGGCC | 0.25 |
| ACCGACAC | 0.0843 |
| AGGTATAC | -0.113 |
| ACACCGTA | -0.107 |
| ACTTCGCA | -0.192 |
| CCTCATCC | -0.0556 |
| CAGGTAGC | -0.0668 |
| TAATTGTA | -0.0754 |
| AGAACCTC | 0.00316 |

| Sequence | PBM E-score |
| --- | --- |
| CTGGGGAA | -0.193 |
| ATCATCAC | -0.103 |
| CCGTAGCG | 0.0439 |
| TCTCAGAA | -0.219 |
| CAATGCGC | 0.175 |
| TGGGAAAA | -0.104 |
| AAGCATTA | -0.217 |
| AATATTGA | 0.0615 |
| TCAAGTGA | -0.203 |
| CTACGGGC | -0.24 |
| CGATGCTA | -0.0121 |
| CATGACAC | 0.00348 |
| CCAACATA | 0.181 |
| CAAGTCTG | -0.271 |
| CCCTAAGC | -0.251 |
| CGTGCGCA | -0.111 |
| CAGGGTGA | -0.201 |
| AGTCGCTC | -0.212 |
| CAGCATTC | -0.0081 |
| ATCTGAAC | 0.0373 |
| ACTTCTGG | -0.155 |
| GTTACATA | -0.167 |

| Sequence | PBM E-score |
| --- | --- |
| ACTTTGTG | 0.0119 |
| ACCAAATA | 0.0784 |
| CGCCACGA | -0.209 |
| GCCTGCAC | -0.154 |
| ACGCGGGA | 0.317 |
| CGTCTACA | -0.13 |
| AACGGATG | 0.283 |
| GTTCGGTA | 0.0837 |
| TGGCCGAA | 0.175 |
| CTCTCATA | -0.0485 |
| AGGCAGCA | -0.0599 |
| AAGGTGAT | -0.148 |
| CGTGCCAG | -0.138 |
| AATATAAT | -0.0536 |
| CCGACGAC | 0.221 |
| ACCACAAA | -0.03 |
| CCTTAGAC | -0.246 |
| CTCCATTA | 0.0305 |
| CCTACGCA | -0.308 |
| CGTCTTCC | 0.17 |
